Reference: publication PMC3199943, “Screening the MayBridge Rule of 3 Fragment Library for Compounds That Interact with the Trypanosoma brucei myo-Inositol-3-Phosphate Synthase and/or Show Trypanocidal Activity” (Molecular Biology International, 2011)
Like-named read-outs stand apart in the source and are kept apart here.

System: cultured bloodstream T. brucei (strain 427)
Test: microbe, parasite or virus in culture
Conditions: Trypanosoma brucei; for IC50: read-out: T. brucei ED50, ED50 ± SD (n = 4)
[1] = read-out: T. brucei Alamar Blue
[2] = read-out: T. brucei Alamar Blue (% survival)
[3] = read-out: T. brucei Alamar Blue, Supplementary Table 1, compound 0.5 mM, percentage of controls in the absence of compound, mean ± SD (n=3) or SE (n=2)

| SMILES | viability at 500 µM [1] | further results |
| --- | --- | --- |
| Cc1nc(N)ccc1C#N [compound 102, 6‐amino‐2‐methylnicotinonitrile] | 68.4 ± 19.6% |  |
| OCc1ccc(C(F)(F)F)o1 [compound 314, [5‐(trifluoromethyl)‐2‐furyl]methanol] | 99.1 ± 0.6% |  |
| CCOC(=O)Cc1ccc(N)cc1 [compound 446, ethyl 2‐(4‐aminophenyl)acetate] | 111 ± 15.4% |  |
| OCc1ccc(-c2ccco2)cc1 [compound 383, [4-(2-furyl)phenyl]methanol] | 33 ± 7.2% | viability at 500 µM [2]: 33 ± 7.2%; IC50: 187 ± 17 µM |
| CC(=O)c1ccc(F)c(Cl)c1 [compound 367, 1‐(3‐chloro‐4‐fluorophenyl)ethan‐1‐one] | 101 ± 10.3% |  |
| Oc1ncnc2cccc(F)c12 [compound 296, 5‐fluoroquinazolin‐4‐ol] |  | viability at 500 µM [3]: 80.2 ± 9.5% |
| Cc1noc(N)c1C [compound 32, 3,4‐dimethylisoxazol‐5‐amine] | 96.2 ± 10.7% |  |
| Nc1ccccc1OC(F)(F)F [compound 418, 2‐(trifluoromethoxy)aniline] | 86.8 ± 2.2% |  |
| N#Cc1cccc(N2CCCC2)c1 [compound 362, 3‐pyrrolidin‐1‐ylbenzonitrile] | 88.1 ± 5.6% |  |
| NC(=O)c1ccccc1C(F)(F)F [compound 532, 2‐(trifluoromethyl)benzamide] | 93.1 ± 13.1% |  |
| Oc1ccc(F)cc1 [compound 29, 4‐fluorophenol] |  | viability at 500 µM [3]: 85.3 ± 12.3% |
| Cc1nc(C#N)cs1 [compound 67, 2‐methyl‐1,3‐thiazole‐4‐carbonitrile] | 106 ± 18% |  |
| O=C(O)Cc1ccc(Cl)c(Cl)c1 [compound 659, 2‐(3,4‐dichlorophenyl)acetic acid] | 36.2 ± 19.3% |  |
| Cc1nc(C(C)(C)C)cs1 [compound 229, 4‐(tert‐butyl)‐2‐methyl‐1,3‐thiazole] | 94.4 ± 6.3% |  |
| NCc1cccc(F)c1 [compound 70, 3‐fluorobenzylamine] | 67.7 ± 18.9% |  |
| O=c1c2ccccc2oc2ncccc12 [compound 600, 5H‐chromeno[2,3‐b]pyridin‐5‐one] | 80.8 ± 9.9% |  |
| CNCc1ccc(OC)cc1 [compound 199, N‐(4‐methoxybenzyl)‐N‐methylamine] | 92.2 ± 16.8% |  |
| Oc1ccc(Oc2ccccc2)cc1 [compound 502, 4‐phenoxyphenol] |  | viability at 500 µM [3]: 30.7 ± 4.5% |
| Cc1nc(CC(=O)O)cs1 [compound 243, 2‐(2‐methyl‐1,3‐thiazol‐4‐yl)acetic acid] | 97.4 ± 8.3% |  |
| N#Cc1ccc(O)cc1F [compound 120, 2‐fluoro‐4‐hydroxybenzonitrile] | 39 ± 9.1% |  |
| Nc1cc(F)ccc1-n1ccnc1 [compound 420, 5‐fluoro‐2‐(1H‐imidazol‐1‐yl)aniline] | 77.6 ± 18.8% |  |
| COC(=O)C1Cc2ccccc2N1 (stereo not shown) [compound 422, methyl 2‐indolinecarboxylate] | 32.3 ± 8.4% |  |
| Cc1ccc2oc(=O)ccc2c1 [compound 265, 6‐methyl‐2H‐chromen‐2‐one] | 91.1 ± 18.7% |  |
| Clc1cn2ccsc2n1 [compound 253, 6‐chloroimidazo[2,1‐b][1,3]thiazole] | 52.8 ± 5.5% |  |
| O=C1CCOCC1 [compound 12, tetrahydro‐4H‐pyran‐4‐one] | 103 ± 17.2% |  |
| OCCc1c[nH]c2ccccc12 [compound 277, 2‐(1H‐indol‐3‐yl)ethan‐1‐ol] | 31.4 ± 8.9% |  |

| SMILES | viability at 500 µM [1] | further results |
| --- | --- | --- |
| COc1ccccc1CCC(=O)O [compound 452, 3‐(2‐methoxyphenyl)propanoic acid] | 49.2 ± 15% |  |
| N#CC1(O)CN2CCC1CC2 (stereo not shown) [compound 208, 3‐hydroxyquinuclidine‐3‐carbonitrile] | 102 ± 18% |  |
| Cc1occc(=O)c1O [compound 74, 3‐hydroxy‐2‐methyl‐4H‐pyran‐4‐one] | 44.5 ± 21.1% |  |
| Oc1noc2ccccc12 [compound 112, benzo[d]isoxazol‐3‐ol] |  | viability at 500 µM [3]: 100 ± 3% |
| O=C(O)C1CCCNC1 (stereo not shown) [compound 91, 3-piperidinecarboxylic acid] |  | viability at 500 µM (read-out: T. brucei Alamar Blue (% survival), compound 0.5 mM, percentage of controls): 36.1 ± 11%; viability at 500 µM [3]: 36.1 ± 11% |
| OCc1ccc(N2CCOCC2)s1 [compound 618, (5‐morpholinothien‐2‐yl)methanol] | 29.7 ± 4.6% |  |
| NC(=S)CSc1ccccc1 [compound 472, 2‐(phenylthio)ethanethioamide] | 43 ± 11% |  |
| Cc1cc(C(=O)O)c(-c2ccccc2)o1 [compound 635, 5‐methyl‐2‐phenyl‐3‐furoic acid] | 40.5 ± 7.4% |  |
| Cc1ccc(C(=O)O)cc1Cl [compound 351, 3‐chloro‐4‐methylbenzoic acid] | 38 ± 12.2% |  |
| Nc1ccc2occc2c1 [compound 100, 1‐benzofuran‐5‐amine] | 38 ± 6.4% |  |
| Cc1cccc(CO)n1 [compound 62, (6‐methylpyridin‐2‐yl)methanol] | 95.7 ± 17.2% |  |
| NS(=O)(=O)c1ccc(F)cc1F [compound 576, 2,4‐difluorobenzenesulfonamide] | 39.2 ± 8% |  |
| N#CN1CCCC1 [compound 3, pyrrolidine‐1‐carbonitrile] | 82.5 ± 12.8% |  |
| Cc1nc(C(=O)O)cs1 [compound 146, 2‐methyl‐1,3‐thiazole‐4‐carboxylic acid] | 102 ± 14.9% |  |
| Nc1cc(-c2cccs2)[nH]n1 [compound 313, 5‐thien‐2‐yl‐1H‐pyrazol‐3‐amine] | 52.4 ± 7% |  |
| CC(=O)c1nccnc1C [compound 117, 1‐(3‐methylpyrazin‐2‐yl)ethan‐1‐one] | 105 ± 17.6% |  |
| Cc1nc(C(N)=S)c[nH]1 [compound 135, 2-methyl-1H-imidazole-4-carbothioamide] | 116 ± 16.6% | viability at 500 µM [2]: 116 ± 16.6% |
| Nc1cc(Cl)cc(Cl)c1 [compound 282, 3,5‐dichloroaniline] | 78.4 ± 11.9% |  |
| COC(=O)c1cccc2cc[nH]c12 [compound 396, methyl 1H‐indole‐7‐carboxylate] | 35.3 ± 9.5% |  |
| Cc1cc(CO)c(-c2ccccc2)o1 [compound 522, (5-methyl-2-phenyl-3-furyl)methanol] | 45.4 ± 7.9% | viability at 500 µM [2]: 45.4 ± 7.9% |
| O=C(C1CCCNC1)N1CCCC1 (stereo not shown) [compound 468, 3‐piperidinyl(1‐pyrrolidinyl)methanone] | 93.4 ± 18.6% |  |
| Cc1ccc[nH]c1=O [compound 17, 3‐methyl‐1,2‐dihydropyridin‐2‐one] | 93.6 ± 17.8% |  |
| O=C(O)C1Cc2ccccc2N1 (stereo not shown) [compound 292, indoline-2-carboxylic acid] | 32.9 ± 9.3% | viability at 500 µM [2]: 32.9 ± 9.3% |
| C#Cc1ccc(OC)cc1 [compound 96, 1‐eth‐1‐ynyl‐4‐methoxybenzene] | 104 ± 18.1% |  |
| O=C1CC(c2ccccc2)=NO1 [compound 272, 3-phenyl-4,5-dihydroisoxazol-5-one] | 60.1 ± 21% | viability at 500 µM [2]: 60.1 ± 21% |
| O=C(O)c1ccc(-c2ccccc2)s1 [compound 649, 5‐phenylthiophene‐2‐carboxylic acid] | 71.2 ± 14.3% |  |

| SMILES | viability at 500 µM [1] | further results |
| --- | --- | --- |
| CCOC(=O)CCc1ccc(O)cc1 [compound 585, ethyl 3‐(4‐hydroxyphenyl)propanoate] | 43.8 ± 15.9% |  |
| OCc1ccnc(N2CCCCC2)c1 [compound 568, (2‐piperidinopyrid‐4‐yl)methanol] | 59.3 ± 16.3% |  |
| Cc1nc(CO)c(C)o1 [compound 78, (2,5‐dimethyl‐1,3‐oxazol‐4‐yl)methanol] | 103 ± 10.5% |  |
| N#Cc1cnccc1C(F)(F)F [compound 358, 4‐(trifluoromethyl)nicotinonitrile] | 112 ± 7.2% |  |
| OCC1CCc2ccccc2O1 (stereo not shown) [compound 299, 3,4‐dihydro‐2H‐chromen‐2‐ylmethanol] | 66.4 ± 16.2% |  |
| Cc1cccc(CN)c1C [compound 113, 2,3‐dimethylbenzylamine] | 74.5 ± 13.2% |  |
| OCc1cccc(-c2ccncc2)c1 [compound 491, (3‐pyrid‐4‐ylphenyl)methanol] | 53.1 ± 10.8% |  |
| Nc1ccc2c(c1)OCO2 [compound 121, 1,3‐benzodioxol‐5‐amine] | 42.4 ± 11.3% |  |
| O=C(O)c1ccc2cc[nH]c2c1 [compound 271, 1H‐indole‐6‐carboxylic acid] |  | viability at 500 µM [3]: 90.5 ± 2.4% |
| O=C(O)c1ccncc1 [compound 60, isonicotinic acid] | 90.7 ± 13.8% |  |
| Cn1c(CO)cc2sccc21 [compound 331, (4-methyl-4H-thieno[3,2-b]pyrrol-5-yl)methanol] | 31 ± 7.1% | viability at 500 µM [2]: 31 ± 7.1%; IC50: 121 ± 15 µM |
| O=C(O)c1nsc(Cl)c1Cl [compound 602, 4,5‐dichloroisothiazole‐3‐carboxylic acid] | 31.7 ± 9.1% |  |
| CC1OCCC1=O (stereo not shown) [compound 11, 2‐methyltetrahydrofuran‐3‐one] | 97.8 ± 15.4% |  |
| OCc1cccnc1N1CCCC1 [compound 440, [2‐(1‐pyrrolidinyl)‐3‐pyridinyl]methanol] | 44.3 ± 11.8% |  |
| CCCCc1nc(CO)c[nH]1 [compound 223, (2‐butyl‐1H‐imidazol‐4‐yl)methanol] | 100 ± 6.7% |  |
| NCc1ccccc1N1CCOCC1 [compound 571, 2‐morpholinobenzylamine] | 65.8 ± 9.1% |  |
| OCc1cc2cccnc2s1 [compound 311, thieno[2,3‐b]pyridin‐2‐ylmethanol] | 70.8 ± 9% |  |
| Cc1cc(C(=O)O)c(C)o1 [compound 130, 2,5‐dimethyl‐3‐furoic acid] | 98.1 ± 6.8% |  |
| CN1CCN(C)C1=O [compound 35, 1,3‐dimethylimidazolidin‐2‐one] | 92.2 ± 13% |  |
| COC(=O)c1ccccc1C [compound 183, methyl 2‐methylbenzoate] | 99 ± 14.4% |  |
| N#Cc1cccc(-c2ccco2)c1 [compound 338, 3‐(2‐furyl)benzonitrile] | 35.6 ± 7.3% |  |
| NC(=O)NCc1ccc(F)cc1 [compound 334, N‐(4‐fluorobenzyl)urea] | 92.1 ± 14% |  |
| N#Cc1cc(N)ccc1-n1cccc1 [compound 471, 5‐amino‐2‐(1H‐pyrrol‐1‐yl)benzonitrile] | 42.4 ± 15.4% |  |
| NC(=O)c1ccccc1Cl [compound 230, 2‐chlorobenzamide] | 96.7 ± 8.2% |  |
